Test results as given in US20230235011A1 (BEIJING BEYOND BIOTECHNOLOGY, published 2023).

Assays:
recombinant human PD-L1 = target: T1, recombinant human PD-L1 (human, UniProt Q9NZQ7 fragment); test: ELISA; PD-L1 coated at 100 ng/ml, fusion protein titrated, anti-human IgG Fc-HRP
T1 construct: Bought protein, coated on the ELISA plate; The construct is not described

recombinant human CTLA-4 = target: T2, recombinant human CTLA-4 (human, UniProt P16410 36-162); test: ELISA; CTLA-4 coated at 100 ng/ml, fusion protein titrated, anti-human IgG Fc-HRP
T2 construct: Bought protein, coated on the ELISA plate; The construct is not described
T2 sequence (looked up): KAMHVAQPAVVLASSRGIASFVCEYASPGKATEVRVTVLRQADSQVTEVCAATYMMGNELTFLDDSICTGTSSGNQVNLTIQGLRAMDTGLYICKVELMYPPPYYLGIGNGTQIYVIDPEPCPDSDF

GPC-3 protein = target: T3, GPC-3 protein (UniProt P51654 25-559, limits assumed); test: SPR (Biacore T100, 25 C); binder captured on anti-human IgG CM5 chip, GPC-3 protein as analyte
Chain of GPC-3 protein (P51654 25-559 limits assumed): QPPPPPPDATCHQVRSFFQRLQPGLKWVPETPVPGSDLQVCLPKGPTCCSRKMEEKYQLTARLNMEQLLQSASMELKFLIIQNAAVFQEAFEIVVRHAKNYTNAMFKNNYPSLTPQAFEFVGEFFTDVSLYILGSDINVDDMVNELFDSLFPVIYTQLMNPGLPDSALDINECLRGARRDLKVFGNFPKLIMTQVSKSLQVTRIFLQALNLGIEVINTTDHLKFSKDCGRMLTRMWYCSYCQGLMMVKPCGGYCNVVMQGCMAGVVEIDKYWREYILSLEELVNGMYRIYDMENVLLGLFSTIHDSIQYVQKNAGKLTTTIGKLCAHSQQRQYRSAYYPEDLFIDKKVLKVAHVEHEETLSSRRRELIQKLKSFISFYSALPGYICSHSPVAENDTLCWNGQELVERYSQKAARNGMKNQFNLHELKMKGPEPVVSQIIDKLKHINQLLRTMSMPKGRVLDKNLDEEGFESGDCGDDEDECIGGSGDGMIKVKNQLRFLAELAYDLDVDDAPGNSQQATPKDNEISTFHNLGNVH
T3 construct: Bought antigen, used as the SPR analyte; also called Glypican-3

VEGF165 = target: T4, VEGF165 (UniProt P15692-4 27-191); test: SPR (Biacore T100, 25 C); binder captured on anti-human IgG CM5 chip, VEGF165 as analyte
T4 construct: Bought antigen, used as the SPR analyte; also called VEGF-A
T4 sequence (looked up): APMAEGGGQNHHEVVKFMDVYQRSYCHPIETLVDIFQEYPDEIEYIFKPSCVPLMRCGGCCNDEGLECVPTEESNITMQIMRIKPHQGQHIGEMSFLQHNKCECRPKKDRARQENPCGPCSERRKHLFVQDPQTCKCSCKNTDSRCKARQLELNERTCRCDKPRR

TGF-β1 = target: T5, TGF-β1 (UniProt P01137 fragment, limits assumed); test: SPR (Biacore T100, 25 C); binder captured on anti-human IgG CM5 chip, TGF-β1 as analyte
Chain of TGF-β1 (P01137 279-390 limits assumed): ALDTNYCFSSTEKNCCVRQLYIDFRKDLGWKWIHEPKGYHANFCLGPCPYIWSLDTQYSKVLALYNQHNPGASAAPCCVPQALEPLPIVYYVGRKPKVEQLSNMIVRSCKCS
T5 construct: Bought antigen, used as the SPR analyte; The printed catalogue number is doubtful

Chain of recombinant human PD-L1 (Q9NZQ7 19-238 limits assumed): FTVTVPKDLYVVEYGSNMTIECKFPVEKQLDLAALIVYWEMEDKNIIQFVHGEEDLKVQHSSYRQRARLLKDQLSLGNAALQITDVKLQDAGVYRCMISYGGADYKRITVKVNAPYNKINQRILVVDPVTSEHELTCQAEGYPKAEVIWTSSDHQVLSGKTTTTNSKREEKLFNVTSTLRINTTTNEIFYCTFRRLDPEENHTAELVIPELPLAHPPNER

B1: fusion protein BY24.30 (Fc-hCD80, IgG4) (Fc fusion)
chain: [no letters for human IgG4 Fc with S228P (EU numbers)]GGGGSGGGGSGGGGSVIHVTKEVKEVATLSCGHNVSVEELAQTRIYWQKEKKMVLTMMSGDMNIWPEYKNRTIFDITNNLSIVILALRPSDEGTYECVVLKYEKDAFKREHLAEVTLSVKADFPTPSISDFEIPTSNIRRIICSTSGGFPEPHLSWLENGEELNAINTTVSQDPETELYAVSSKLDFNMTTNHSFMCLIKYGHLRVNQTFNWNTTKQEHFP
notes: CD80 ECD at the C-terminus of IgG4 Fc; also called Fc-hCD80 fusion protein; Fc-CD80
For B1, the EC50 (recombinant human PD-L1) was 0.841 µg/mL and the EC50 (recombinant human CTLA-4) was 0.92 µg/mL.

B2: conjugate BY20.3 (codrituzumab-CD80) (other)
heavy: QVQLVQSGAEVKKPGASVKVSCKASGYTFTDYEMHWVRQAPGQGLEWMGALDPKTGDTAYSQKFKGRVTLTADKSTSTAYMELSSLTSEDTAVYYCTRFYSYTYWGQGTLVTVSS[no letters for human IgG1 constant region]GGGGSGGGGSGGGGSVIHVTKEVKEVATLSCGHNVSVEELAQTRIYWQKEKKMVLTMMSGDMNIWPEYKNRTIFDITNNLSIVILALRPSDEGTYECVVLKYEKDAFKREHLAEVTLSVKADFPTPSISDFEIPTSNIRRIICSTSGGFPEPHLSWLENGEELNAINTTVSQDPETELYAVSSKLDFNMTTNHSFMCLIKYGHLRVNQTFNWNTTKQEHFP
light: DVVMTQSPLSLPVTPGEPASISCRSSQSLVHSNRNTYLHWYLQKPGQSPQLLIYKVSNRFSGVPDRFSGSGSGTDFTLKISRVEAEDVGVYYCSQNTHVPPTFGQGTKLEIKRTVAAPSVFIFPPSDEQLKSGTASVVCLLNNFYPREAKVQWKVDNALQSGNSQESVTEQDSKDSTYSLSSTLTLSKADYEKHKVYACEVTHQGLSSPVTKSFNRGEC
notes: IgG1 anti-GPC-3 antibody with the CD80 ECD on the heavy chain C-terminus; It uses the BY20.2 light chain
Binder B2 has a Kd (GPC-3 protein) of 1.49 nM, a koff (GPC-3 protein) of 5.54e-05 s⁻¹ and a kon (GPC-3 protein) of 37200 M⁻¹ s⁻¹.

B3: fusion protein BY24.23 (hCD80-Fc, IgG4) (Fc fusion)
chain: VIHVTKEVKEVATLSCGHNVSVEELAQTRIYWQKEKKMVLTMMSGDMNIWPEYKNRTIFDITNNLSIVILALRPSDEGTYECVVLKYEKDAFKREHLAEVTLSVKADFPTPSISDFEIPTSNIRRIICSTSGGFPEPHLSWLENGEELNAINTTVSQDPETELYAVSSKLDFNMTTNHSFMCLIKYGHLRVNQTFNWNTTKQEHFPD[no letters for human IgG4 Fc with S228P (EU numbers)]
notes: Control with the CD80 ECD at the N-terminus of IgG4 Fc; also called hCD80-Fc fusion protein
In the case of B3, the EC50 (recombinant human PD-L1) is reported as 5.3 µg/mL and the EC50 (recombinant human CTLA-4) is reported as 5.25 µg/mL.

B4: conjugate BY24.22 (VEGFR-Fc-CD80, IgG4) (Fc fusion)
chain: ASDTGRPFVEMYSEIPEIIHMTEGRELVIPCRVTSPNITVTLKKFPLDTLIPDGKRIIWDSRKGFIISNATYKEIGLLTCEATVNGHLYKTNYLTHRQTNTIIDVVLSPSHGIELSVGEKLVLNCTARTELNVGIDFNWEYPSSKHQHKKLVNRDLKTQSGSEMKKFLSTLTIDGVTRSDQGLYTCAASSGLMTKKNSTFVRVHE[no letters for human IgG4 Fc with S228P (EU numbers)]GGGGSGGGGSGGGGSVIHVTKEVKEVATLSCGHNVSVEELAQTRIYWQKEKKMVLTMMSGDMNIWPEYKNRTIFDITNNLSIVILALRPSDEGTYECVVLKYEKDAFKREHLAEVTLSVKADFPTPSISDFEIPTSNIRRIICSTSGGFPEPHLSWLENGEELNAINTTVSQDPETELYAVSSKLDFNMTTNHSFMCLIKYGHLRVNQTFNWNTTKQEHFP
Work on B4 yielded a Kd (VEGF165) of 0.00857 nM, a koff (VEGF165) of 2.99e-05 s⁻¹ and a kon (VEGF165) of 3.49e+06 M⁻¹ s⁻¹.

B5: conjugate BY41.6 (IgG-like TGF-βRII-CD80 fusion protein) (Fc fusion)
heavy: VTDNNGAVKFPQLCKFCDVRFSTCDNQKSCMSNCSITSICEKPQEVCVAVWRKNDENITLETVCHDPKLPYHDFILEDAASPKCIMKEKKKPGETFFMCSCSSDECNDNIIFSEEYNTSNPGGGGSSASTKGPSVFPLAPCSRSTSESTAALGCLVKDYFPEPVTVSWNSGALTSGVHTFPAVLQSSGLYSLSSVVTVPSSSLGTKTYTCNVDHKPSNTKVDKRV[no letters for human IgG4 Fc with S228P (EU numbers)]GGGGSGGGGSGGGGSVIHVTKEVKEVATLSCGHNVSVEELAQTRIYWQKEKKMVLTMMSGDMNIWPEYKNRTIFDITNNLSIVILALRPSDEGTYECVVLKYEKDAFKREHLAEVTLSVKADFPTPSISDFEIPTSNIRRIICSTSGGFPEPHLSWLENGEELNAINTTVSQDPETELYAVSSKLDFNMTTNHSFMCLIKYGHLRVNQTFNWNTTKQEHFP
light: VTDNNGAVKFPQLCKFCDVRFSTCDNQKSCMSNCSITSICEKPQEVCVAVWRKNDENITLETVCHDPKLPYHDFILEDAASPKCIMKEKKKPGETFFMCSCSSDECNDNIIFSEEYNTSNPGGGGSRTVAAPSVFIFPPSDEQLKSGTASVVCLLNNFYPREAKVQWKVDNALQSGNSQESVTEQDSKDSTYSLSSTLTLSKADYEKHKVYACEVTHQGLSSPVTKSFNRGEC
notes: Fab-like arms carry the TGFβRII ECD in place of VH and VL
B5 showed a Kd (TGF-β1) of 7.43 nM, a koff (TGF-β1) of 0.000665 s⁻¹ and a kon (TGF-β1) of 89500 M⁻¹ s⁻¹.
